Laboratory results from PMC5128866.
Results are given in words; binding and its absence hold for the method and conditions named. For some of these results: In cells and extracts the contact can be indirect. Some results given as binding are weak or reduced against the parent protein; the word gives no strength. Tags and fused reporters may be left off the sequences shown.

T1: BD-Teb1N, N-terminal fragment of Teb1 (amino acid residues 1-237) fused with a DNA-binding domain (fission yeast (Schizosaccharomyces pombe)) (UniProt Q10274)
T1 sequence: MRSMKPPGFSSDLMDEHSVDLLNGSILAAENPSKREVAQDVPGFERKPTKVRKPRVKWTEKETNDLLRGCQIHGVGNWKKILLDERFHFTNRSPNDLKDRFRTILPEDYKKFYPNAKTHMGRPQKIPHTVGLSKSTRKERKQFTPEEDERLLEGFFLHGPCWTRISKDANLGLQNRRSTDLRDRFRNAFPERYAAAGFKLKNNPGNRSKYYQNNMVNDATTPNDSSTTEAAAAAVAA

T2: N1, N-terminal fragment of Ams2 (amino acid residues 1-143), two-hybrid fusion (fission yeast (Schizosaccharomyces pombe)) (UniProt Q9URT4)
T2 sequence: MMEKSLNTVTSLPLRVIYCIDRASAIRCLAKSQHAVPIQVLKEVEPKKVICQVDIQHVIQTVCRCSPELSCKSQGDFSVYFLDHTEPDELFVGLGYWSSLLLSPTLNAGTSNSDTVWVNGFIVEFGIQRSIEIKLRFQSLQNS

T3: Ams2 in fission yeast lysate (GFP-tagged Ams2 from the chromosomal locus; HA-tagged wild-type Ams2 overproduced from pRep41) (fission yeast (Schizosaccharomyces pombe)) (UniProt Q9URT4)
T3 sequence: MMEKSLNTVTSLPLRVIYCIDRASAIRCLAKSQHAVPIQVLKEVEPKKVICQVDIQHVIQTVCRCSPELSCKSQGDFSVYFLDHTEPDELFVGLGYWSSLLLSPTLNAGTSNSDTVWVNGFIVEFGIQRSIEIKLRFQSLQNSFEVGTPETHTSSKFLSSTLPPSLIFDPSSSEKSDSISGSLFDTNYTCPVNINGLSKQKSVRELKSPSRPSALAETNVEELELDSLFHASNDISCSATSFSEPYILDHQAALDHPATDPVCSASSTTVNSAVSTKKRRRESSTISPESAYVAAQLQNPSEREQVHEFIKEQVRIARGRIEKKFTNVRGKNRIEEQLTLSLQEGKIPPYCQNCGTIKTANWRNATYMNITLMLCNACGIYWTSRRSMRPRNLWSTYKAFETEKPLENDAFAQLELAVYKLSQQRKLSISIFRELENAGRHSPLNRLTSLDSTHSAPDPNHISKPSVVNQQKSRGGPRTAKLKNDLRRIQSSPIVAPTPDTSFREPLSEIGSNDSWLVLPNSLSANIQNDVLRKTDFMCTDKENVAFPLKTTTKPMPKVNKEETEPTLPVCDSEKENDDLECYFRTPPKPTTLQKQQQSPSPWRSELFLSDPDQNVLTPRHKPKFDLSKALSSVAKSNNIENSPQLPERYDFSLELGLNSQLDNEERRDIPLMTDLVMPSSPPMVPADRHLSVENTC


Experiments:
[1] = biological target: T1, BD-Teb1N, N-terminal fragment of Teb1 (amino acid residues 1-237) fused with a DNA-binding domain (fission yeast (Schizosaccharomyces pombe)); assay: two-hybrid; budding yeast strain L40 (LexAop-HIS3); pBTM (BD) bait and pGAD (AD) prey; growth on medium lacking tryptophan, leucine and histidine with 25 mM 3-AT at 30 °C
[2] = biological target: T2, N1, N-terminal fragment of Ams2 (amino acid residues 1-143), two-hybrid fusion (fission yeast (Schizosaccharomyces pombe)); assay: as above
[3] = biological target: T3, Ams2 in fission yeast lysate (GFP-tagged Ams2 from the chromosomal locus; HA-tagged wild-type Ams2 overproduced from pRep41) (fission yeast (Schizosaccharomyces pombe)); assay: co-IP; S. pombe lysates (cells arrested in S phase with 12 mM HU) in IP buffer (50 mM HEPES pH 7.5, 250 mM NaCl, 0.1% NP40); anti-GFP antibody and Dynabeads anti-Mouse IgG at 4 °C; western blotting with anti-HA

| Binder | binding [1] | binding [2] | binding [3] |
| --- | --- | --- | --- |
| AD-C2, C-terminal fragment C2 of Ams2 (amino acid residues 347-697) (domain or fragment, UniProt Q9URT4 347-697) IPPYCQNCGTIKTANWRNATYMNITLMLCNACGIYWTSRRSMRPRNLWSTYKAFETEKPLENDAFAQLELAVYKLSQQRKLSISIFRELENAGRHSPLNRLTSLDSTHSAPDPNHISKPSVVNQQKSRGGPRTAKLKNDLRRIQSSPIVAPTPDTSFREPLSEIGSNDSWLVLPNSLSANIQNDVLRKTDFMCTDKENVAFPLKTTTKPMPKVNKEETEPTLPVCDSEKENDDLECYFRTPPKPTTLQKQQQSPSPWRSELFLSDPDQNVLTPRHKPKFDLSKALSSVAKSNNIENSPQLPERYDFSLELGLNSQLDNEERRDIPLMTDLVMPSSPPMVPADRHLSVENTC | no binding |  |  |
| N1, N-terminal fragment of Ams2 (amino acid residues 1-143), two-hybrid fusion (domain or fragment, UniProt Q9URT4 1-143) MMEKSLNTVTSLPLRVIYCIDRASAIRCLAKSQHAVPIQVLKEVEPKKVICQVDIQHVIQTVCRCSPELSCKSQGDFSVYFLDHTEPDELFVGLGYWSSLLLSPTLNAGTSNSDTVWVNGFIVEFGIQRSIEIKLRFQSLQNS |  | binds |  |
| AD-full-length Ams2 (protein, UniProt Q9URT4 1-697) MMEKSLNTVTSLPLRVIYCIDRASAIRCLAKSQHAVPIQVLKEVEPKKVICQVDIQHVIQTVCRCSPELSCKSQGDFSVYFLDHTEPDELFVGLGYWSSLLLSPTLNAGTSNSDTVWVNGFIVEFGIQRSIEIKLRFQSLQNSFEVGTPETHTSSKFLSSTLPPSLIFDPSSSEKSDSISGSLFDTNYTCPVNINGLSKQKSVRELKSPSRPSALAETNVEELELDSLFHASNDISCSATSFSEPYILDHQAALDHPATDPVCSASSTTVNSAVSTKKRRRESSTISPESAYVAAQLQNPSEREQVHEFIKEQVRIARGRIEKKFTNVRGKNRIEEQLTLSLQEGKIPPYCQNCGTIKTANWRNATYMNITLMLCNACGIYWTSRRSMRPRNLWSTYKAFETEKPLENDAFAQLELAVYKLSQQRKLSISIFRELENAGRHSPLNRLTSLDSTHSAPDPNHISKPSVVNQQKSRGGPRTAKLKNDLRRIQSSPIVAPTPDTSFREPLSEIGSNDSWLVLPNSLSANIQNDVLRKTDFMCTDKENVAFPLKTTTKPMPKVNKEETEPTLPVCDSEKENDDLECYFRTPPKPTTLQKQQQSPSPWRSELFLSDPDQNVLTPRHKPKFDLSKALSSVAKSNNIENSPQLPERYDFSLELGLNSQLDNEERRDIPLMTDLVMPSSPPMVPADRHLSVENTC | binds | binds |  |
| AD-C1, C-terminal fragment C1 of Ams2 (amino acid residues 143-697) (domain or fragment, UniProt Q9URT4 143-697) SFEVGTPETHTSSKFLSSTLPPSLIFDPSSSEKSDSISGSLFDTNYTCPVNINGLSKQKSVRELKSPSRPSALAETNVEELELDSLFHASNDISCSATSFSEPYILDHQAALDHPATDPVCSASSTTVNSAVSTKKRRRESSTISPESAYVAAQLQNPSEREQVHEFIKEQVRIARGRIEKKFTNVRGKNRIEEQLTLSLQEGKIPPYCQNCGTIKTANWRNATYMNITLMLCNACGIYWTSRRSMRPRNLWSTYKAFETEKPLENDAFAQLELAVYKLSQQRKLSISIFRELENAGRHSPLNRLTSLDSTHSAPDPNHISKPSVVNQQKSRGGPRTAKLKNDLRRIQSSPIVAPTPDTSFREPLSEIGSNDSWLVLPNSLSANIQNDVLRKTDFMCTDKENVAFPLKTTTKPMPKVNKEETEPTLPVCDSEKENDDLECYFRTPPKPTTLQKQQQSPSPWRSELFLSDPDQNVLTPRHKPKFDLSKALSSVAKSNNIENSPQLPERYDFSLELGLNSQLDNEERRDIPLMTDLVMPSSPPMVPADRHLSVENTC | binds | no binding |  |

More lines, now with the values ahead:

| binding [1] | binding [2] | binding [3] | Binder |
| --- | --- | --- | --- |
|  | binds |  | AD-zinc finger-mutated Ams2 (MZF) (protein, UniProt Q9URT4 1-697) MMEKSLNTVTSLPLRVIYCIDRASAIRCLAKSQHAVPIQVLKEVEPKKVICQVDIQHVIQTVCRCSPELSCKSQGDFSVYFLDHTEPDELFVGLGYWSSLLLSPTLNAGTSNSDTVWVNGFIVEFGIQRSIEIKLRFQSLQNSFEVGTPETHTSSKFLSSTLPPSLIFDPSSSEKSDSISGSLFDTNYTCPVNINGLSKQKSVRELKSPSRPSALAETNVEELELDSLFHASNDISCSATSFSEPYILDHQAALDHPATDPVCSASSTTVNSAVSTKKRRRESSTISPESAYVAAQLQNPSEREQVHEFIKEQVRIARGRIEKKFTNVRGKNRIEEQLTLSLQEGKIPPYCQNCGTIKTANWRNATYMNITLMLANAAGIYWTSRRSMRPRNLWSTYKAFETEKPLENDAFAQLELAVYKLSQQRKLSISIFRELENAGRHSPLNRLTSLDSTHSAPDPNHISKPSVVNQQKSRGGPRTAKLKNDLRRIQSSPIVAPTPDTSFREPLSEIGSNDSWLVLPNSLSANIQNDVLRKTDFMCTDKENVAFPLKTTTKPMPKVNKEETEPTLPVCDSEKENDDLECYFRTPPKPTTLQKQQQSPSPWRSELFLSDPDQNVLTPRHKPKFDLSKALSSVAKSNNIENSPQLPERYDFSLELGLNSQLDNEERRDIPLMTDLVMPSSPPMVPADRHLSVENTC |
|  |  | binds | Ams2 in fission yeast lysate (GFP-tagged Ams2 from the chromosomal locus; HA-tagged wild-type Ams2 overproduced from pRep41) (protein, UniProt Q9URT4 1-697) MMEKSLNTVTSLPLRVIYCIDRASAIRCLAKSQHAVPIQVLKEVEPKKVICQVDIQHVIQTVCRCSPELSCKSQGDFSVYFLDHTEPDELFVGLGYWSSLLLSPTLNAGTSNSDTVWVNGFIVEFGIQRSIEIKLRFQSLQNSFEVGTPETHTSSKFLSSTLPPSLIFDPSSSEKSDSISGSLFDTNYTCPVNINGLSKQKSVRELKSPSRPSALAETNVEELELDSLFHASNDISCSATSFSEPYILDHQAALDHPATDPVCSASSTTVNSAVSTKKRRRESSTISPESAYVAAQLQNPSEREQVHEFIKEQVRIARGRIEKKFTNVRGKNRIEEQLTLSLQEGKIPPYCQNCGTIKTANWRNATYMNITLMLCNACGIYWTSRRSMRPRNLWSTYKAFETEKPLENDAFAQLELAVYKLSQQRKLSISIFRELENAGRHSPLNRLTSLDSTHSAPDPNHISKPSVVNQQKSRGGPRTAKLKNDLRRIQSSPIVAPTPDTSFREPLSEIGSNDSWLVLPNSLSANIQNDVLRKTDFMCTDKENVAFPLKTTTKPMPKVNKEETEPTLPVCDSEKENDDLECYFRTPPKPTTLQKQQQSPSPWRSELFLSDPDQNVLTPRHKPKFDLSKALSSVAKSNNIENSPQLPERYDFSLELGLNSQLDNEERRDIPLMTDLVMPSSPPMVPADRHLSVENTC |
|  |  | binds | HA-tagged zinc finger-mutated Ams2 protein (MZF), overproduced (protein, UniProt Q9URT4 1-697) MMEKSLNTVTSLPLRVIYCIDRASAIRCLAKSQHAVPIQVLKEVEPKKVICQVDIQHVIQTVCRCSPELSCKSQGDFSVYFLDHTEPDELFVGLGYWSSLLLSPTLNAGTSNSDTVWVNGFIVEFGIQRSIEIKLRFQSLQNSFEVGTPETHTSSKFLSSTLPPSLIFDPSSSEKSDSISGSLFDTNYTCPVNINGLSKQKSVRELKSPSRPSALAETNVEELELDSLFHASNDISCSATSFSEPYILDHQAALDHPATDPVCSASSTTVNSAVSTKKRRRESSTISPESAYVAAQLQNPSEREQVHEFIKEQVRIARGRIEKKFTNVRGKNRIEEQLTLSLQEGKIPPYCQNCGTIKTANWRNATYMNITLMLANAAGIYWTSRRSMRPRNLWSTYKAFETEKPLENDAFAQLELAVYKLSQQRKLSISIFRELENAGRHSPLNRLTSLDSTHSAPDPNHISKPSVVNQQKSRGGPRTAKLKNDLRRIQSSPIVAPTPDTSFREPLSEIGSNDSWLVLPNSLSANIQNDVLRKTDFMCTDKENVAFPLKTTTKPMPKVNKEETEPTLPVCDSEKENDDLECYFRTPPKPTTLQKQQQSPSPWRSELFLSDPDQNVLTPRHKPKFDLSKALSSVAKSNNIENSPQLPERYDFSLELGLNSQLDNEERRDIPLMTDLVMPSSPPMVPADRHLSVENTC |
|  |  | no binding | HA-tagged N1 region-deleted Ams2 protein (C1), overproduced (domain or fragment, UniProt Q9URT4 143-697) SFEVGTPETHTSSKFLSSTLPPSLIFDPSSSEKSDSISGSLFDTNYTCPVNINGLSKQKSVRELKSPSRPSALAETNVEELELDSLFHASNDISCSATSFSEPYILDHQAALDHPATDPVCSASSTTVNSAVSTKKRRRESSTISPESAYVAAQLQNPSEREQVHEFIKEQVRIARGRIEKKFTNVRGKNRIEEQLTLSLQEGKIPPYCQNCGTIKTANWRNATYMNITLMLCNACGIYWTSRRSMRPRNLWSTYKAFETEKPLENDAFAQLELAVYKLSQQRKLSISIFRELENAGRHSPLNRLTSLDSTHSAPDPNHISKPSVVNQQKSRGGPRTAKLKNDLRRIQSSPIVAPTPDTSFREPLSEIGSNDSWLVLPNSLSANIQNDVLRKTDFMCTDKENVAFPLKTTTKPMPKVNKEETEPTLPVCDSEKENDDLECYFRTPPKPTTLQKQQQSPSPWRSELFLSDPDQNVLTPRHKPKFDLSKALSSVAKSNNIENSPQLPERYDFSLELGLNSQLDNEERRDIPLMTDLVMPSSPPMVPADRHLSVENTC |
